The whole screen tested about 310,000 compounds, of which about 14,000 (4.5%) showed an effect of 50% or more. Effects have a minus sign here. Some of the results follow.
These molecules were tested against human ether-à-go-go-related gene (hERG) potassium channel (human, UniProt Q12809) (assay: primary screen, population patch clamp on CHO cells stably expressing hERG).
Chain of human ether-à-go-go-related gene (hERG) potassium channel (Q12809 whole entry, looked up): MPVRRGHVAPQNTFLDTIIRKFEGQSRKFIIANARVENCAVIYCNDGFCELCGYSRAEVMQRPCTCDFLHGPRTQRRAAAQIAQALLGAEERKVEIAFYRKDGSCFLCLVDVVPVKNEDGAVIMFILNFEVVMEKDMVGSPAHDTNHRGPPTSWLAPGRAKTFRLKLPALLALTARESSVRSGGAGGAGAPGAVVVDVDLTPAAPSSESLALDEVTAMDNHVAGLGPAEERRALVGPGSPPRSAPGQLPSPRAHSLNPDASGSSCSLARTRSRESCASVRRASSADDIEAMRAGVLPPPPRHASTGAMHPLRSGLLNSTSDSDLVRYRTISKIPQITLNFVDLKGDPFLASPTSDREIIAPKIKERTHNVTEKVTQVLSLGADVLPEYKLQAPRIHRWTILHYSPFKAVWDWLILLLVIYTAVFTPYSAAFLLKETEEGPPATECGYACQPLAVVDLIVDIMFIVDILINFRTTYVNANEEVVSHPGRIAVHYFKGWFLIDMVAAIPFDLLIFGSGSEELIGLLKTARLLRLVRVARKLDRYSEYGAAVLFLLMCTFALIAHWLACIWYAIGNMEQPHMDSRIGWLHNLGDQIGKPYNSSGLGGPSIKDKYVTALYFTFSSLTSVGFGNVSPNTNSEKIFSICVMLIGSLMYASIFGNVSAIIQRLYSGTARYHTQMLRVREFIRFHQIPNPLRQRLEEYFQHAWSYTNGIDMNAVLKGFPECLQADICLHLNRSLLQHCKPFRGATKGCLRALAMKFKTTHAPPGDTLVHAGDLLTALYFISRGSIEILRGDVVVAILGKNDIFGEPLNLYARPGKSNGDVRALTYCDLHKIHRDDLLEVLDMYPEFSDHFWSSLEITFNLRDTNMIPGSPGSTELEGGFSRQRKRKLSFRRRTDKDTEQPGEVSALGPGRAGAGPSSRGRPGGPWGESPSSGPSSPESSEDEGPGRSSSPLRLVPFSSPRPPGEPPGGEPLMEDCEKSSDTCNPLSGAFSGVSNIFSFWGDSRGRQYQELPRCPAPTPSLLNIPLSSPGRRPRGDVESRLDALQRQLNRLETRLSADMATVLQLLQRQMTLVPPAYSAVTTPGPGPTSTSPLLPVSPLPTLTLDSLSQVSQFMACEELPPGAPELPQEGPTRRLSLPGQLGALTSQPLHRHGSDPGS
For `CCOC(=O)c1cc(-c2ccc(C)cc2)n(CC(=O)NCc2ccco2)c1C`, the “hERG current change (%, negative = inhibition) at 10uM” value was 12.2%. For `O=C(Nc1ccccc1C(=O)NCCCN1CCOCC1)c1ccccc1`, the “hERG current change (%, negative = inhibition) at 10uM” value was 6.8%. For `Cc1cc(F)ccc1NS(=O)(=O)c1c(C(=O)N2CCOCC2)c(C)n(C)c1C`, the “hERG current change (%, negative = inhibition) at 10uM” value was 4.2%. `CS(=O)(=O)N(CCC#N)Cc1ccc(C=O)o1` was tested, and the “hERG current change (%, negative = inhibition) at 10uM” value was 15.5%. With `CCC(C)(C)n1nnnc1C(C(C)C)N(Cc1ccco1)Cc1cc2cc3c(cc2[nH]c1=O)OCO3` (stereo not drawn) the “hERG current change (%, negative = inhibition) at 10uM” value was -2.62%. For `Cc1cc(C)cc(OCC(=O)NNC(=O)c2cc3ccccc3o2)c1`, the “hERG current change (%, negative = inhibition) at 10uM” value was 14.1%. `Cc1cccc(N(C)S(=O)(=O)c2ccc(-c3cnc(C4CC4)o3)cc2)c1` was tested, and the “hERG current change (%, negative = inhibition) at 10uM” value was 9.02%. With `Cc1ccc(SCC(=O)Nc2cccc(C)c2)cc1` the “hERG current change (%, negative = inhibition) at 10uM” value was 47.2%. With `COC(=O)c1cnc2ccccc2n1` the “hERG current change (%, negative = inhibition) at 10uM” value was 14.6%. With `Cc1cc(OCc2cc(C(=O)NCC3(C)COC3)no2)cc(C)c1Cl` the “hERG current change (%, negative = inhibition) at 10uM” value was -16.4%. In the case of `COc1ccc(C(=O)OCC(=O)NC(=O)NC2CCCC2)cc1OC`, the “hERG current change (%, negative = inhibition) at 10uM” value was -8.44%. For `O=C(NCN1CCCCC1)c1cccnc1`, the “hERG current change (%, negative = inhibition) at 10uM” value was 5.75%. In the case of `COc1cc(-c2nc(-c3ccncc3)no2)cc(OC)c1OC`, the “hERG current change (%, negative = inhibition) at 10uM” value was 16.6%. For `CC(=O)N/C(=C\c1ccccc1)C(=O)N1CCOCC1`, the “hERG current change (%, negative = inhibition) at 10uM” value was 20.1%. For `O=C(N/N=C(\Cc1ncc[nH]1)c1ccccc1)c1ccccc1`, the “hERG current change (%, negative = inhibition) at 10uM” value was 19.4%. `CC(Oc1ccc(F)cc1)C(=O)Nc1cc(C(F)(F)F)ccc1-n1cncn1` (stereo not drawn) was tested, and the “hERG current change (%, negative = inhibition) at 10uM” value was -33.9%. `COc1cc(OC)cc(C(=O)Nc2cc(NC(=O)c3ccco3)ccc2OC)c1` was tested, and the “hERG current change (%, negative = inhibition) at 10uM” value was -11.9%. In the case of `Cc1c(C(=O)O)cccc1-n1c(C)cc(/C=C(/C#N)C(=O)NCc2ccccc2)c1C`, the “hERG current change (%, negative = inhibition) at 10uM” value was 11.2%. `CC(C)(O)C#Cc1ccc(C(=O)N2CCC(CCC(=O)NC3CC3)CC2)cc1` was tested, and the “hERG current change (%, negative = inhibition) at 10uM” value was -26.4%. `CCOc1ccc(/C(CC)=N/NC(=O)C2(C)CC2(Br)Br)cc1` (stereo not drawn) was tested, and the “hERG current change (%, negative = inhibition) at 10uM” value was 11.9%. With `C[C@@H]1CN(C2CCC(C#N)(c3ccc(F)cc3)CC2)CC[C@]1(C(=O)O)c1ccccc1.Cl` (stereo partly drawn) the “hERG current change (%, negative = inhibition) at 10uM” value was -33.2%. For `COc1ccc(C(=O)Nc2ccccc2SCc2cc(=O)n3nc(C)sc3n2)cc1OC`, the “hERG current change (%, negative = inhibition) at 10uM” value was 8.33%. In the case of `COc1ccccc1NC(=O)Nc1nnc(CC(=O)Nc2cccc(C)c2)s1`, the “hERG current change (%, negative = inhibition) at 10uM” value was 7.57%. `O=c1[nH]c2ccc(S(=O)(=O)Nc3ccccc3O)cc2[nH]1` was tested, and the “hERG current change (%, negative = inhibition) at 10uM” value was 25.8%.

From article PMC4336329 (PLoS ONE, 2015)
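Further: peak tail current of the secondary pulse compared with the same well before compound.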
